Consider 25 compounds from the antibiotic and cytotoxicity screens of Wong et al. (2023).

Each structure is given as a SMILES string. Some of the results follow.

One experiment relates to HSkMC. The experiment in a line: cytotoxicity call (relative viability < 0.9). As to conditions: 10 µM.
Another experiment relates to HepG2. Kind of experiment: cytotoxicity call (relative viability < 0.9). As to conditions: 10 µM.
In the next experiment the test system is S. aureus RN4220. Kind of experiment: growth inhibition call (relative growth <= 0.2). As to conditions: 50 µM.

On to `C[C@@H]1CN([C@H](C)CO)C(=O)c2cc(NC(=O)Nc3ccc(C(F)(F)F)cc3)ccc2O[C@@H](C)CCCCO[C@H]1CN(C)S(C)(=O)=O`, for which the cytotoxicity call in the experiment on HSkMC is “inactive”. For the same compound, the cytotoxicity call in the experiment with HepG2 is “active”. In addition, in the experiment on S. aureus RN4220, the growth inhibition call was “inactive”.

As to `C[C@H](CO)N1C[C@H](C)[C@H](CN(C)C(=O)c2cnccn2)Oc2ncc(-c3cccc(C#N)c3)cc2C1=O`, the cytotoxicity call in the experiment on HSkMC and in the experiment on HepG2 was “inactive” throughout. In addition, the growth inhibition call with S. aureus RN4220 was “inactive”.

With `C[C@@H]1[C@H]2[C@H](O[C@@H]3O[C@H](CO)[C@@H](O)[C@H](O)[C@H]3O)OC=C(C(=O)O)[C@H]2C[C@@H]1O`, the cytotoxicity call in the experiment on HSkMC and in the experiment with HepG2 was “inactive” in each case. The growth inhibition call with S. aureus RN4220 is “inactive”.

With `C[C@H](CO)N1C[C@H](C)[C@H](CN(C)S(=O)(=O)c2ccc(F)cc2)Oc2ccc(NC(=O)Nc3ccc(C(F)(F)F)cc3)cc2C1=O`, the cytotoxicity call with HSkMC was “active”. In the experiment on HepG2, the cytotoxicity call was “inactive”. Also, the growth inhibition call in the experiment on S. aureus RN4220 was “inactive”.

For the compound `C[C@@H]1CN([C@H](C)CO)C(=O)c2cc(C#Cc3ccccc3F)cnc2O[C@@H]1CN(C)S(=O)(=O)c1ccccc1F`, the cytotoxicity call with HSkMC and in the experiment with HepG2 was “inactive” throughout. In the experiment on S. aureus RN4220, the growth inhibition call is “inactive”.

Consider `CC(C)NC(=O)Nc1cccc2c1O[C@H](CN(C)S(=O)(=O)c1cn(C)cn1)[C@@H](C)CN([C@H](C)CO)C2=O`, for which the cytotoxicity call in the experiment with HSkMC and in the experiment with HepG2 was “inactive” in each case. Besides, in the experiment on S. aureus RN4220, the growth inhibition call is “inactive”.

Take `O[C@@H]1[C@@H](O)[C@H](Nc2ccccc2)OC[C@H]1O`: the cytotoxicity call with HSkMC and in the experiment on HepG2 was “inactive” in each case. For the same compound, the growth inhibition call in the experiment with S. aureus RN4220 was “inactive”.

Regarding `COCC(=O)Nc1ccc2c(c1)C(=O)N(C)C[C@@H](OC)[C@H](C)CN(C(=O)CN1CCOCC1)[C@H](C)CO2`, the cytotoxicity call in the experiment on HSkMC and in the experiment with HepG2 was “inactive” each time. The growth inhibition call with S. aureus RN4220 was “inactive”.

For the compound `Cc1noc(C)c1NC(=O)N[C@@H]1C=C[C@H](CC(=O)N2CCN(C)CC2)O[C@H]1CO`, the cytotoxicity call in the experiment with HSkMC and in the experiment with HepG2 was “inactive” each time. Also, the growth inhibition call with S. aureus RN4220 is “inactive”.

Take `CN1C[C@]2(CCN(C(=O)c3cn(CCN4CCNCC4)nn3)C2)OC1=O`: the cytotoxicity call with HSkMC and with HepG2 was “inactive” in each case. For the same compound, the growth inhibition call in the experiment with S. aureus RN4220 was “inactive”.

As to `C[C@H](CO)N1C[C@H](C)[C@@H](CN(C)C(=O)Nc2ccc(C(F)(F)F)cc2)Oc2ccc(NC(=O)CCC(F)(F)F)cc2CC1=O`, the cytotoxicity call in the experiment on HSkMC and in the experiment with HepG2 was “inactive” each time. The growth inhibition call in the experiment on S. aureus RN4220 was “inactive”.

As to `Cc1noc(C)c1NC(=O)Nc1ccc2c(c1)C(=O)N([C@@H](C)CO)C[C@@H](C)[C@H](CN(C)C(=O)NC1CCCCC1)OCCCC[C@@H](C)O2`, the cytotoxicity call in the experiment on HSkMC and with HepG2 was “inactive” in each case. Moreover, in the experiment on S. aureus RN4220, the growth inhibition call is “inactive”.

Consider `O=C(NCc1ccc(S(=O)(=O)N2CCOCC2)s1)c1cccnc1C(=O)N1CCOCC1`, for which the cytotoxicity call with HSkMC and in the experiment on HepG2 was “inactive” in each case. For the same compound, the growth inhibition call with S. aureus RN4220 is “inactive”.

Turning to `C[C@@H]1CCCCO[C@H](CN(C)CC2CCCCC2)[C@@H](C)CN([C@H](C)CO)C(=O)c2cc(NC(=O)C3CCCCC3)ccc2O1`, the cytotoxicity call in the experiment with HSkMC and in the experiment with HepG2 was “inactive” in each case. The growth inhibition call in the experiment with S. aureus RN4220 was “inactive”.

As for `C[C@@H]1CCCCO[C@@H](CN(C)Cc2ccc(C(F)(F)F)cc2)[C@@H](C)CN([C@@H](C)CO)C(=O)c2cc(NC(=O)c3ccccc3)ccc2O1`, the cytotoxicity call in the experiment on HSkMC and in the experiment with HepG2 was “inactive” throughout. Moreover, the growth inhibition call in the experiment on S. aureus RN4220 is “inactive”.

For the compound `Cc1noc(C)c1NC(=O)Nc1ccc2c(c1)C(=O)N([C@@H](C)CO)C[C@@H](C)[C@H](CN(C)CC1CC1)OCCCC[C@@H](C)O2`, the cytotoxicity call in the experiment with HSkMC and with HepG2 was “inactive” in each case. Besides, in the experiment with S. aureus RN4220, the growth inhibition call was “inactive”.

Turning to `COc1c2ccoc2nc2c(OC)c(OCC(O)C(C)(C)O)ccc12` (stereo not given), the cytotoxicity call in the experiment with HSkMC is “inactive”. The cytotoxicity call in the experiment on HepG2 is “active”. In the experiment with S. aureus RN4220, the growth inhibition call was “inactive”.

In the case of `C[C@@H]1CN([C@H](C)CO)C(=O)c2cc(NC(=O)Nc3ccc(F)cc3)ccc2O[C@@H](C)CCCCO[C@H]1CN(C)Cc1ccc2c(c1)OCO2`, the cytotoxicity call in the experiment on HSkMC was “inactive”. Further, in the experiment with HepG2, the cytotoxicity call was “active”. In the experiment with S. aureus RN4220, the growth inhibition call is “inactive”.

As to `C[C@H](CO)N1C[C@H](C)[C@@H](CN(C)CC2CCCCC2)Oc2ccc(NC(=O)Nc3cccc4ccccc34)cc2C1=O`, the cytotoxicity call with HSkMC and in the experiment on HepG2 was “inactive” each time. Further, the growth inhibition call in the experiment on S. aureus RN4220 is “inactive”.

With `C[C@@H]1CN([C@@H](C)CO)C(=O)Cc2cc(NC(=O)CCC(F)(F)F)ccc2O[C@@H]1CN(C)Cc1ccc(Cl)c(Cl)c1`, the cytotoxicity call with HSkMC is “inactive”. In the experiment on HepG2, the cytotoxicity call is “active”. Moreover, the growth inhibition call with S. aureus RN4220 was “inactive”.

On to `C[C@H]1CN([C@@H](C)CO)C(=O)c2cc(NC(=O)CCC(F)(F)F)ccc2O[C@H]1CN(C)Cc1ccc(-c2ccccc2)cc1`, for which the cytotoxicity call in the experiment on HSkMC and with HepG2 was “inactive” each time. In addition, the growth inhibition call in the experiment with S. aureus RN4220 is “inactive”.

Take `C[C@H]1CN([C@@H](C)CO)C(=O)c2cccc(NS(=O)(=O)c3cccs3)c2O[C@@H]1CN(C)C(=O)Nc1cccc2ccccc12`: the cytotoxicity call with HSkMC was “inactive”. The cytotoxicity call in the experiment with HepG2 was “active”. Also, the growth inhibition call with S. aureus RN4220 was “inactive”.

Take `Cc1nnc(SCC2=C(C(=O)O)N3C(=O)[C@@H](NC(=O)Cn4cnnn4)[C@H]3SC2)s1`: the cytotoxicity call in the experiment with HSkMC and in the experiment with HepG2 was “inactive” each time. Besides, the growth inhibition call with S. aureus RN4220 was “active”.

Regarding `Nc1ccn([C@H]2C[C@@H](O)[C@@H](CO)O2)c(=O)n1`, the cytotoxicity call with HSkMC and in the experiment with HepG2 was “inactive” in each case. Also, the growth inhibition call in the experiment on S. aureus RN4220 is “inactive”.

With `C[C@@H]1CN([C@@H](C)CO)C(=O)Cc2cc(NS(=O)(=O)c3ccccc3)ccc2O[C@H]1CN(C)Cc1ccc2c(c1)OCO2`, the cytotoxicity call in the experiment on HSkMC (human skeletal muscle cells) and in the experiment on HepG2 was “inactive” throughout. Besides, the growth inhibition call in the experiment on S. aureus RN4220 is “inactive”.
